In the antibiotic and cytotoxicity screens of Wong et al. (2023):
This is one part of the list.

Experiments:
[1] = test system: HSkMC (human skeletal muscle cells); test: cytotoxicity call (relative viability < 0.9); settings: 10 µM
[2] = test system: HepG2; test: cytotoxicity call (relative viability < 0.9); settings: 10 µM
[3] = test system: S. aureus RN4220; test: growth inhibition call (relative growth <= 0.2); settings: 50 µM

Row | SMILES | cytotoxicity call [1] | cytotoxicity call [2] | growth inhibition call [3]
1 | NC[C@@](O)(CS(=O)(=O)O)c1ccc(Cl)cc1 | inactive | inactive | inactive
2 | C[C@H](CO)N1C[C@H](C)[C@H](CN(C)C(=O)C2CCCCC2)Oc2cc(C#CC3CC3)ccc2S1(=O)=O | inactive | inactive | inactive
3 | C[C@@H]1CCCCO[C@H](CN(C)C(=O)CCC(F)(F)F)[C@H](C)CN([C@@H](C)CO)C(=O)c2cc(NC(=O)CCC(F)(F)F)ccc2O1 | inactive | inactive | inactive
4 | CCOC(=O)N1C(=O)[C@@]2(CCCOC2)N(c2ccc(C)cc2)C1=S.CCOC(=O)N1C(=O)[C@]2(CCCOC2)N(c2ccc(C)cc2)C1=S | inactive | inactive | inactive
5 | COc1cccc(NC(=O)N(C)C[C@@H]2Oc3ncc(C#Cc4cccnc4)cc3C(=O)N([C@@H](C)CO)C[C@@H]2C)c1 | inactive | inactive | inactive
6 | C[C@H]1CN([C@@H](C)CO)C(=O)Cc2cc(NC(=O)Cn3cnnn3)ccc2O[C@@H]1CN(C)S(=O)(=O)c1cn(C)cn1 | inactive | inactive | inactive
7 | O=C(O)[C@@H]1[C@@H]2CC[C@@H](C2)[C@H]1C(=O)O | inactive | inactive | inactive
8 | COc1cccc(S(=O)(=O)Nc2ccc3c(c2)[C@H]2C[C@@H](CC(=O)NCc4cccc(F)c4)O[C@@H](CO)[C@H]2O3)c1 | inactive | inactive | inactive
9 | C=CC[C@@H](CC(=O)NCCO)C(=O)NC[C@H](OC(=O)[C@H](CC=C)CC(=O)OC(C)(C)C)c1ccccc1 | inactive | inactive | inactive
10 | Cc1ccc(S(=O)(=O)Nc2ccc3c(c2)C(=O)N([C@H](C)CO)C[C@H](C)[C@H](CN(C)CC2CC2)O3)cc1 | inactive | inactive | inactive
11 | Cc1noc(C)c1S(=O)(=O)Nc1ccc2c(c1)C(=O)N([C@H](C)CO)C[C@H](C)[C@@H](CN(C)Cc1ccc(Oc3ccccc3)cc1)O2 | inactive | inactive | inactive
12 | Cc1noc(C)c1NC(=O)Nc1ccc2c(c1)C(=O)N([C@H](C)CO)C[C@@H](C)[C@@H](CN(C)S(=O)(=O)c1ccc(F)cc1)OCCCC[C@H](C)O2 | inactive | inactive | inactive
13 | C[C@]1(C(=O)O)c2ccccc2C(=O)N(Cc2cc(C(F)(F)F)cc(C(F)(F)F)c2)[C@H]1c1ccc(CO)cc1 | inactive | inactive | inactive
14 | C[N+](C)(C)CCCC[C@@H]1NC(=O)[C@H]2C[C@@H](C(=O)NCCCCCCNC(=O)CS)[C@@H](c3cccc(OCCO)c3)N2C1=O | inactive | inactive | inactive
15 | COc1ccc2c3c([nH]c2c1)[C@H](CO)N(C[C@]13CCN(CC1)Cc1nccs1)C(=O)C1CCOCC1 | inactive | inactive | inactive
16 | CN1C(=O)Cc2ccccc2C1=O | inactive | inactive | inactive
17 | Cc1noc(C)c1NC(=O)N(C)C[C@H]1Oc2ccc(NS(=O)(=O)c3cn(C)cn3)cc2C(=O)N([C@H](C)CO)C[C@@H]1C | inactive | inactive | inactive
18 | C[C@@H]1CN([C@@H](C)CO)C(=O)c2cc(NS(=O)(=O)c3ccccc3)ccc2O[C@@H](C)CCCCO[C@@H]1CN(C)C(=O)Nc1ccc2c(c1)OCO2 | inactive | inactive | inactive
19 | CC1COC2=C1C(=O)C(=O)c1c2ccc2c1CCCC2(C)C (stereo not given) | active | active | active
20 | CO[C@H]1CN(C)C(=O)c2cc(NC(=O)Nc3ccc(Cl)cc3)ccc2OC[C@@H](C)N(C(=O)Nc2c(C)noc2C)C[C@H]1C | inactive | inactive | inactive
21 | COc1ccc(S(=O)(=O)Nc2ccc3c(c2)C(=O)N([C@H](C)CO)C[C@H](C)[C@@H](CN(C)C(=O)NC2CCCCC2)OCCCC[C@@H](C)O3)cc1 | inactive | inactive | inactive
22 | Cc1noc(C)c1NC(=O)N(C)C[C@@H]1Oc2ccc(NC(=O)NC(C)C)cc2CC(=O)N([C@H](C)CO)C[C@H]1C | inactive | inactive | inactive
23 | CC(C)(C)[S@](=O)N1Cc2cc(C(=O)N3CCCCC3)nc(-c3cccc(C4=CCCC4)c3)c2[C@@H]1CCO | inactive | inactive | inactive
24 | CO[C@@H]1CN(C)C(=O)c2ccc(NC(=O)c3ccccc3)cc2OC[C@@H](C)N(C(=O)CN(C)C)C[C@@H]1C | inactive | inactive | inactive
25 | C[C@@H]1CN([C@@H](C)CO)C(=O)Cc2cc(NC(=O)Nc3cccc4ccccc34)ccc2O[C@@H]1CN(C)C(=O)Nc1ccc2c(c1)OCO2 | inactive | inactive | inactive
26 | C[C@H]1CN([C@@H](C)CO)C(=O)Cc2cc(NC(=O)Nc3cccc4ccccc34)ccc2O[C@@H]1CN(C)S(=O)(=O)c1cccs1 | inactive | inactive | inactive
27 | C[C@@H]1CN([C@H](C)CO)C(=O)Cc2cc(NC(=O)CCN3CCOCC3)ccc2O[C@@H]1CN(C)Cc1ccc2c(c1)OCO2 | inactive | inactive | inactive
28 | C[C@H]1CCCCO[C@@H](CN(C)S(=O)(=O)c2ccccc2)[C@@H](C)CN([C@@H](C)CO)C(=O)c2cc(NC(=O)Nc3ccccc3)ccc2O1 | inactive | inactive | inactive

Row | SMILES | cytotoxicity call [1] | cytotoxicity call [2] | growth inhibition call [3]
29 | C[C@H]1CN([C@@H](C)CO)S(=O)(=O)c2ccc(C#Cc3ccccc3)cc2O[C@H]1CN(C)C(=O)c1ccccn1 | inactive | inactive | inactive
30 | C[C@H](CO)N1C[C@H](C)[C@@H](CN(C)C(=O)Nc2ccc3c(c2)OCO3)Oc2cc(C#Cc3ccncc3)ccc2S1(=O)=O | inactive | active | inactive
31 | Cn1cc(C(=O)N2CC[C@H]3[C@@H]2CCN3S(C)(=O)=O)cn1 | inactive | inactive | inactive
32 | C[C@@H]1CCCCO[C@H](CN(C)S(=O)(=O)c2ccc(F)cc2)[C@H](C)CN([C@H](C)CO)C(=O)c2cc(NC(=O)Nc3cccc4ccccc34)ccc2O1 | inactive | inactive | inactive
33 | Cc1noc(C)c1NC(=O)N(C)C[C@H]1Oc2c(NC(=O)Nc3ccc(C(F)(F)F)cc3)cccc2C(=O)N([C@@H](C)CO)C[C@H]1C | inactive | active | inactive
34 | Cc1ccc(S(=O)(=O)Nc2ccc3c(c2)C(=O)N([C@@H](C)CO)C[C@H](C)[C@H](CN(C)S(=O)(=O)c2cccs2)O3)cc1 | inactive | inactive | inactive
35 | C[C@@H]1CCCCO[C@@H](CN(C)S(C)(=O)=O)[C@@H](C)CN([C@@H](C)CO)C(=O)c2cc(NS(=O)(=O)c3ccccc3)ccc2O1 | inactive | inactive | inactive
36 | C[C@H](CO)N1C[C@H](C)[C@@H](CN(C)Cc2ccc(C(=O)Nc3ccccc3N)cc2)Oc2ccc(NC(=O)Nc3ccc4c(c3)OCO4)cc2CC1=O | inactive | inactive | inactive
37 | COc1ccc(S(=O)(=O)Nc2cccc3c2O[C@H](CN(C)S(=O)(=O)c2cccs2)[C@@H](C)CN([C@H](C)CO)C3=O)cc1 | inactive | inactive | inactive
38 | O=c1[nH]c(=O)n([C@H]2C[C@H](O)[C@@H](CO)O2)cc1C(F)(F)F | inactive | active | inactive
39 | C[C@H]1CN([C@@H](C)CO)C(=O)c2cccc(NC(=O)Nc3ccccc3)c2O[C@H]1CN(C)Cc1ccc(C(=O)Nc2ccccc2N)cc1 | active | active | inactive
40 | CC(C)NC(=O)N(C)C[C@H]1Oc2c(NS(=O)(=O)c3cn(C)cn3)cccc2C(=O)N([C@@H](C)CO)C[C@H]1C | inactive | inactive | inactive
41 | Cc1noc(C)c1NC(=O)Nc1ccc2c(c1)C(=O)N([C@H](C)CO)C[C@@H](C)[C@@H](CN(C)C(=O)Nc1ccc3c(c1)OCO3)OCCCC[C@@H](C)O2 | inactive | inactive | inactive
42 | COc1ccc(S(=O)(=O)N(C)C[C@H]2OCCCC[C@H](C)Oc3ccc(NC(=O)Nc4cccc5ccccc45)cc3C(=O)N([C@H](C)CO)C[C@H]2C)cc1 | inactive | inactive | inactive
43 | C[C@@H]1CN([C@@H](C)CO)C(=O)c2cc(NC(=O)Nc3ccc(F)cc3)ccc2O[C@@H](C)CCCCO[C@H]1CN(C)Cc1ccc(C(F)(F)F)cc1 | inactive | active | inactive
44 | Cc1ccc2oc3c(c(=O)c2c1)[C@@]1(C(=O)N(Cc2ccccc2F)c2ccccc21)N(Cc1ccco1)C3=O | inactive | inactive | inactive
45 | COC(=O)CCn1ccc(=O)[nH]c1=O | inactive | inactive | inactive
46 | CC(C)c1c(O)ccc2c1CC[C@H]1C(C)(C)CCC[C@]21C | active | active | inactive
47 | C[C@H](CO)N1C[C@H](C)[C@@H](CN(C)Cc2ccc(C(F)(F)F)cc2)Oc2ccc(NC(=O)Nc3ccccc3)cc2CC1=O | inactive | inactive | inactive
48 | C[C@H]1CN([C@@H](C)CO)C(=O)c2cc(-c3cccnc3)cnc2O[C@@H]1CN(C)C(=O)Nc1ccc2c(c1)OCO2 | inactive | inactive | inactive
49 | COc1ccc(S(=O)(=O)Nc2ccc3c(c2)CC(=O)N([C@@H](C)CO)C[C@@H](C)[C@@H](CN(C)S(=O)(=O)c2ccccc2)O3)cc1 | inactive | inactive | inactive
50 | CCc1nc2ccc(C(=O)NCc3ccccc3OC)cn2c1N(CC)Cc1cccc(Br)c1 | inactive | inactive | inactive
51 | C[C@@H]1CN([C@H](C)CO)C(=O)c2cccc(NC(=O)C3CC3)c2O[C@@H]1CN(C)C(=O)NC1CCCCC1 | inactive | inactive | inactive
52 | C[C@H]1CN([C@@H](C)CO)C(=O)Cc2cc(NC(=O)CCN3CCOCC3)ccc2O[C@@H]1CN(C)CC1CC1 | inactive | inactive | inactive
53 | Cn1c(=O)n(C)c2cc(CO)ccc21 | inactive | inactive | inactive
54 | Cc1noc(C)c1NC(=O)N(C)C[C@@H]1Oc2ccc(NC(=O)Nc3cccc4ccccc34)cc2CC(=O)N([C@H](C)CO)C[C@@H]1C | inactive | inactive | inactive
55 | C[C@H](CO)N1C[C@H](C)[C@H](CN(C)C(=O)Cc2ccccn2)Oc2cc(C#C[C@@H](C)O)ccc2S1(=O)=O | inactive | inactive | inactive
